# Source: US20240092891A1 (SANYOU BIOPHARMACEUTICALS, published 2024)
# B1: Fc-fused chimeric antibody NA7-S (Fc fusion)
# chain: EVQVQESGGGLVQPGGSLRLSCAASGSFFRIVAMGWYRQAPGSQRELVATITRGGSTYYADSMKGRSTISRDNAKNTVYLQMNSLKPEDTAVYYCNVRVEVPFMQPNDYWGHGTQVTVSS[letters of human IgG1 Fc left out]
# notes: Alpaca VHH fused to human IgG1 Fc, expressed in ExpiCHO; also called candidate antibody NA7-S; NA7-S antibody
# B2: Fc-fused chimeric antibody NA4-S (Fc fusion)
# chain: EVQVVESGGGLVQPGGSLRLSCAASGSIFSINVMGWYRQAPGKQRELVAGISTGGTTRYADSAKGRFTISRDNAKNTVYLQMNSLKPEDTAVYYCNADLATATSWPVRYLEVWGQGTLVTVSA[letters of human IgG1 Fc left out]
# notes: It gives no copy number for this molecule; also called candidate antibody NA4-S; NA4-S antibody
# B3: Fc-fused chimeric antibody NA8-S (Fc fusion)
# chain: EVQVQESGGGLVQAGGSLRLSCAASGRTFSNYAVGWFRQAPGKEREFVAAITWSGGSTNYADSVKGRFTISRDNAKNTAWLQMNSLKPEDTAVYYCAGGFFATSYSGNYGYWGQGTQVTVSS[letters of human IgG1 Fc left out]
# notes: Alpaca VHH fused to human IgG1 Fc, expressed in ExpiCHO; also called candidate antibody NA8-S; NA8-S antibody
# Tests used:
# [1] = molecular target: human CLDN18.2 (human); experiment: cell-based or functional assay
# [2] = molecular target: T1, murine CLDN18.1 (murine, UniProt P56857 1-264); experiment: flow cytometry on murine CLDN18.1-HEK293 cells
# T1 construct: Overexpressed on HEK293 cells; also called murine CLDN18.1-HEK293
# T1 sequence (P56857 whole entry): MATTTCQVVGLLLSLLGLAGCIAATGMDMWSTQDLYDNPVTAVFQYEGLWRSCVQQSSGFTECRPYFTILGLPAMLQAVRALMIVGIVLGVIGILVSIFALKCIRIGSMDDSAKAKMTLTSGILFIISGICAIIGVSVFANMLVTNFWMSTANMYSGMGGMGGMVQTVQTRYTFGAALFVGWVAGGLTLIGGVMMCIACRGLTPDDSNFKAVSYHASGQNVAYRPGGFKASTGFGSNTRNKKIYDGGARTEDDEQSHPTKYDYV
# [3] = molecular target: T2, human CLDN18.1 (human, UniProt P56856 1-261); experiment: flow cytometry, binding intensity on human CLDN18.1-HEK293 cells at different concentrations
# T2 construct: Overexpressed on HEK293 cells; also called human CLDN18.1-HEK293
# T2 sequence (P56856 whole entry): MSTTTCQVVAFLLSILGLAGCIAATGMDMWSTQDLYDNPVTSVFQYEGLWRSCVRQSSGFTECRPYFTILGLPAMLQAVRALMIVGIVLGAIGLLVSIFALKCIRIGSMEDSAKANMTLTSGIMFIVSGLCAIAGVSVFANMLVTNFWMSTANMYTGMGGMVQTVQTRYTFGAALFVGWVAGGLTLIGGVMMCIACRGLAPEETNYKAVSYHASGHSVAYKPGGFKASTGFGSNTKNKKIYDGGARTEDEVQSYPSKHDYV
Binder,"EC50 of ADCC cell killing effect (LDH release, human PBMC) on human CLDN18.2-HEK293T cells [1]",EC50 of CDC cell killing effect (MTS) on human CLDN18.2-HEK293T cells [1],EC50 of CDC cell killing effect (MTS) on human CLDN18.2-KATOIII tumor cells [1],"IC50 of Fab-ZAP cell killing (endocytosis, MTS) on CLDN18.2-HEK293T cells [1]",binding result [2],binding result [3]
B1,0.11 nM,0.507 nM,6.85 nM,0.0487 nM,no binding (tested: 10 µg/mL),
B2,,0.732 nM,,,no binding (tested: 10 µg/mL),no binding (tested: 100 µg/mL)
B3,,,,,no binding (tested: 10 µg/mL),
